This is an account of results in the supplement of paper PMC11876631.

B1: folC; numbered along this chain (parent)
chain: MIIKRTPQAASPLASWLSYLENLHSKTIDLGLERVSLVAARLGVLKPAPFVFTVAGTNGKGTTCRTLESILMAAGYKVGVYSSPHLVRYTERVRVQGQELPESAHTASFAEIESARGDISLTYFEYGTLSALWLFKQAQLDVVILEVGLGGRLDATNIVDADVAVVTSIALDHTDWLGPDRESIGREKAGIFRSEKPAIVGEPEMPSTIADVAQEKGALLQRRGVEWNYSVTDHDWAFSDAHGTLENLPLPLVPQPNAATALAALRASGLEVSENAIRDGIASAILPGRFQIVSESPRVIFDVAHNPHAAEYLTGRMKALPKNGRVLAVIGMLHDKDIAGTLAWLKSVVDDWYCAPLEGPRGATAEQLLEHLGNGKSFDSVAQAWDAAMADAKAEDTVLVCGSFHTVAHVMEVIDARRSGGK

This data set covers variants of B1. The data set is described as follows: barcode share on antibiotic plates over drug-free plates; higher = less susceptible. The conditions noted are these: with Escherichia coli (laboratory strain). The procedure: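 A pool of E. coli strains, each edited to carry one amino-acid change in an essential protein, was grown for 48 h on minimal glucose agar with or without antibiotic; strain barcodes were sequenced; mean of two replicates.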

Setting [1] is: antibiotic: carbenicillin, 2× MIC (3.1 µg/mL).
Setting [2] is: antibiotic: gentamicin, 2× MIC (MIC 0.45 µg/mL).

± gives the standard deviation of the averaged measurements. Laboratory Escherichia coli strains with one amino-acid change in an essential protein, pooled on minimal glucose agar with carbenicillin or gentamicin at twice the control MIC (plus kanamycin and chloramphenicol for the plasmids), 48 h. Fold change of barcode share against drug-free plates; higher = less susceptible. Active = above 20 in both replicates (the paper's putatively resistant). '<' = one read or none on drug, '>' = one read or none on a drug-free plate. Shares are relative, so most strains fall below 1 when a few take over. Listed are strains with at least 15 reads on both drug-free plates, and hits; most hits rest on fewer reference reads. Replicate rank correlation about 0.5. Edits are read from barcodes. Some results are limits rather than exact numbers.

On to MIIKRTPQAASPLASWLSYLENLHSKTIDLGLERVSLVAARLGVLKPAPFVFTVAGTNGKGTTCRTLESILMAAGYKVGVYSSPHLVRYTERVRVQGQELPESAHTASFAEIESARGDISLTYFEYGTLSALWLFKQAQLDVVQLEVGLGGRLDATNIVDADVAVVTSIALDHTDWLGPDRESIGREKAGIFRSEKPAIVGEPEMPSTIADVAQEKGALLQRRGVEWNYSVTDHDWAFSDAHGTLENLPLPLVPQPNAATALAALRASGLEVSENAIRDGIASAILPGRFQIVSESPRVIFDVAHNPHAAEYLTGRMKALPKNGRVLAVIGMLHDKDIAGTLAWLKSVVDDWYCAPLEGPRGATAEQLLEHLGNGKSFDSVAQAWDAAMADAKAEDTVLVCGSFHTVAHVMEVIDARRSGGK [I144Q], for which the “fold change of barcode share” value under setting [1] was found to be 0.2 ± 0.051.

For MIIKRTPQAASPLASWLSYLENLHSKTIDLGLERVSLVAARLGVLKPAPFVFTVAGTNGKGTTCRTLESIWMAAGYKVGVYSSPHLVRYTERVRVQGQELPESAHTASFAEIESARGDISLTYFEYGTLSALWLFKQAQLDVVILEVGLGGRLDATNIVDADVAVVTSIALDHTDWLGPDRESIGREKAGIFRSEKPAIVGEPEMPSTIADVAQEKGALLQRRGVEWNYSVTDHDWAFSDAHGTLENLPLPLVPQPNAATALAALRASGLEVSENAIRDGIASAILPGRFQIVSESPRVIFDVAHNPHAAEYLTGRMKALPKNGRVLAVIGMLHDKDIAGTLAWLKSVVDDWYCAPLEGPRGATAEQLLEHLGNGKSFDSVAQAWDAAMADAKAEDTVLVCGSFHTVAHVMEVIDARRSGGK [L71W], the “fold change of barcode share” value amounted to 0.382 ± 0.022 under setting [1] and 0.00398 ± 0.00042 under setting [2]. For MIIKRTPQAASPLASWLSYLENLHSKTIDLGLERVSLVAARLGVLKPAPFVFTVAGTNGKGTTCRTLESIQMAAGYKVGVYSSPHLVRYTERVRVQGQELPESAHTASFAEIESARGDISLTYFEYGTLSALWLFKQAQLDVVILEVGLGGRLDATNIVDADVAVVTSIALDHTDWLGPDRESIGREKAGIFRSEKPAIVGEPEMPSTIADVAQEKGALLQRRGVEWNYSVTDHDWAFSDAHGTLENLPLPLVPQPNAATALAALRASGLEVSENAIRDGIASAILPGRFQIVSESPRVIFDVAHNPHAAEYLTGRMKALPKNGRVLAVIGMLHDKDIAGTLAWLKSVVDDWYCAPLEGPRGATAEQLLEHLGNGKSFDSVAQAWDAAMADAKAEDTVLVCGSFHTVAHVMEVIDARRSGGK [L71Q] the same measures were 0.334 ± 0.085 and 0.0116 ± 0.01.

Regarding MIIKRTPQAASPLASWLSYLENLHSKTIDLGLERVSLVAARLGVLKPAPFVFTVAGTNGKGTTCRTLESILMAAGYKVGVYSSPHLVRYTERVRVQGQELPESAHTASFAEIESARGDISLTYFEYGTLSALWLFKQAQLDVDILEVGLGGRLDATNIVDADVAVVTSIALDHTDWLGPDRESIGREKAGIFRSEKPAIVGEPEMPSTIADVAQEKGALLQRRGVEWNYSVTDHDWAFSDAHGTLENLPLPLVPQPNAATALAALRASGLEVSENAIRDGIASAILPGRFQIVSESPRVIFDVAHNPHAAEYLTGRMKALPKNGRVLAVIGMLHDKDIAGTLAWLKSVVDDWYCAPLEGPRGATAEQLLEHLGNGKSFDSVAQAWDAAMADAKAEDTVLVCGSFHTVAHVMEVIDARRSGGK [V143D], under setting [2], the “fold change of barcode share” value was < 0.00697. Same read-out and setting: under MIIKRTPQAASPLASWLSYLENLHSKTIDLGLERVSLVAARLGVLKPAPFVFTVAGTNGKGTTCRTLESILMAAGYKVGVYSSPHLVRYTERVRVQGQELPESAHTASFAEIESARGDISLTYFEYGTLSALWLFKQAQLDVAILEVGLGGRLDATNIVDADVAVVTSIALDHTDWLGPDRESIGREKAGIFRSEKPAIVGEPEMPSTIADVAQEKGALLQRRGVEWNYSVTDHDWAFSDAHGTLENLPLPLVPQPNAATALAALRASGLEVSENAIRDGIASAILPGRFQIVSESPRVIFDVAHNPHAAEYLTGRMKALPKNGRVLAVIGMLHDKDIAGTLAWLKSVVDDWYCAPLEGPRGATAEQLLEHLGNGKSFDSVAQAWDAAMADAKAEDTVLVCGSFHTVAHVMEVIDARRSGGK [V143A] stands < 0.00298. For MIIKRTPQAASPLASWLSYLENLHSKTIDLGLERVSLVAARLGVLKPAPFVFTVAGTNGKGTTCRTLESILMAAGYKVGVYSSPHLVRYTERVRVQGQELPESAHTASFAEIESARGDISLTYFEYGTLSALWLFKQAQLDVWILEVGLGGRLDATNIVDADVAVVTSIALDHTDWLGPDRESIGREKAGIFRSEKPAIVGEPEMPSTIADVAQEKGALLQRRGVEWNYSVTDHDWAFSDAHGTLENLPLPLVPQPNAATALAALRASGLEVSENAIRDGIASAILPGRFQIVSESPRVIFDVAHNPHAAEYLTGRMKALPKNGRVLAVIGMLHDKDIAGTLAWLKSVVDDWYCAPLEGPRGATAEQLLEHLGNGKSFDSVAQAWDAAMADAKAEDTVLVCGSFHTVAHVMEVIDARRSGGK [V143W], the “fold change of barcode share” value runs as follows: under setting [1], 0.199 ± 0.096; under setting [2], < 0.0111. The matching figures for MIIKRTPQAASPLASWLSYLENLHSKTIDLGLERVSLVAARLGVLKPAPFVFTVAGTNGKGTTCRTLESILMAAGYKVGVYSSPHLVRYTERVRVQGQELPESAHTASFAEIESARGDISLTYFEYGTLSALWLFKQAQLDVVILEVGLGGRLDATNIVDADVAVVTSIALDHTDWLGPDRESIGREKAGIFRSEKPAIVGEPEMPSTIADVAQEKGALLQRRGVEWNYSVTDHDWAFSDAHGTLENLPLPLVPQPNAATALAALRASGLEVSENAIRDGIASAILPGRFQIVSESPRVIFDVAHNPHAAEYLTGRMKALPKNGRVLAVIGMLHDKDIAGTLAWLKSVVDDWYCAPLEGPRGATAEQLLEHLGNGKSFDSVAQAWDAAMADAKAEDTVLVCGSFHTAAHVMEVIDARRSGGK [V407A]: 0.296 ± 0.054 and 0.005612 ± 6.7e-06.

Consider MIIKRTPQAASPLASWLSYLENLHSKTIDLGLERVSLVAARLGVLKPAPFVFTVAGTNGKGTTCRTLESILMAAGYKVGVYSSPHLVRYTERVRVQGQELPESAHTASFAEIESARGDISLTYFEYGTLSALWLFKQAQLDVVILEVGLGGRLDATNIVDADVAVVTSIALDHTDWLGPDRESIGREKAGIFRSEKPAIVGEPEMPSTIADVAQEKGALLQRRGVEWNYSVTDHDWAFSDAHGTLENLPLPLVPQPNAATALAALRASGLEVSENAIRDGIASAILPGRFQIVSESPRVIFDVAHNPHAAEYLTGRMKALPKNGRVLAVIGMLHDKDIAGTLAWLKSVVDDWYCAPLEGPRGATAEQLLEHLGNGKSFDSVAQAWDAAMADAKAEDTVLVCGSFHTQAHVMEVIDARRSGGK [V407Q], for which the “fold change of barcode share” value under setting [1] was 1.13 ± 0.13. Regarding MIIKRTPQAASPLASWLSYLENLHSKTIDLGLERVSLVAARLGVLKPAPFVFTVAGTNGKGTTCRTLESILMAAGYKVGVYSSPHLVRYTERVRVQGQELPESAHTASFAEIESARGDISLTYFEYGTLSALWLFKQAQLDVVILEVGLGGRLDATNIVDADVAVVTSIALDHTDWLGPDRESIGREKAGIFRSEKPAIVGEPEMPSTIADVAQEKGALLQRRGVEWNYSVTDHDWAFSDAHGTLENLPLPLVPQPNAATALAALRASGLEVSENAIRDGIASAILPGRFQIVSESPRVIFDVAHNPHAAEYLTGRMKALPKNGRVLAVIGMLHDKDIAGTLAWLKSVVDDWYCAPLEGPRGATAEQLLEHLGNGKSFDSVAQAWDAAMADAKAEDTVLVCGSFHTPAHVMEVIDARRSGGK [V407P], the “fold change of barcode share” value came to 0.542 ± 0.16 under setting [1] and 0.0158 ± 0.0057 under setting [2].
